Drawing on the GPR68 mutational scans of Howard et al. (2025), this text covers cAMP reporter score and surface expression score for 30 variants.

B1: GPR68, Q15743 (parent)
chain: MGNITADNSSMSCTIDHTIHQTLAPVVYVTVLVVGFPANCLSLYFGYLQIKARNELGVYLCNLTVADLFYICSLPFWLQYVLQHDNWSHGDLSCQVCGILLYENIYISVGFLCCISVDRYLAVAHPFRFHQFRTLKAAVGVSVVIWAKELLTSIYFLMHEEVIEDENQHRVCFEHYPIQAWQRAINYYRFLVGFLFPICLLLASYQGILRAVRRSHGTQKSRKDQIQRLVLSTVVIFLACFLPYHVLLLVRSVWEASCDFAKGVFNAYHFSLLLTSFNCVADPVLYCFVSETTHRDLARLRGACLAFLTCSRTGRAREAYPLGAPEASGKSGAQGEEPELLTKLHPAFQTPNSPGSGGFPTGRLA

The variants in series [1] derive from B1. Kind of series: cAMP reporter score (Enrich2 score, wild type = 0); higher = more signal; HEK293T, FACS bins.
In series [2] the parent is B1. In words: surface expression score (Enrich2 score, wild type = 0); higher = more signal; HEK293T, FACS bins.

Scores whose standard error is large were omitted. Not listed are two conditions whose scores span a narrow range. In variant names, del marks residues removed and ins residues inserted between the two positions. For part of these data: How much ogerin was present is not stated here.

For A24_P25insGS, the cAMP reporter score in series [1] (pH 5.5) is -1.27; in series [1] (pH 6) it was -1.63; in series [1] (pH 6, modulator: ogerin), -1.63; in series [1] (pH 6.5, modulator: ogerin), -1.22. In series [2], the surface expression score is -2.94.

For the variant T30_V31insG, the cAMP reporter score was -1.89 in series [1] (pH 5.5); -0.377 in series [1] (pH 6); -0.835 in series [1] (pH 6, modulator: ogerin); -1.48 in series [1] (pH 6.5, modulator: ogerin). Further, the surface expression score in series [2] was -1.66.

Consider I19_H20insGS, for which the cAMP reporter score is -1.05 in series [1] (pH 5.5); -0.036 in series [1] (pH 6); -1.71 in series [1] (pH 6, modulator: ogerin); -0.362 in series [1] (pH 6.5, modulator: ogerin). Also, the surface expression score in series [2] was -2.28.

As for H20_Q21insG, the cAMP reporter score in series [1] (pH 5.5) was -1.6; in series [1] (pH 6), -0.594; in series [1] (pH 6, modulator: ogerin) it was -1.41; in series [1] (pH 6.5, modulator: ogerin) it was -0.814. Further, the surface expression score in series [2] is -1.49.

Turning to T22_L23insGSG, the cAMP reporter score in series [1] (pH 5.5) was -1.17; in series [1] (pH 6), -0.252; in series [1] (pH 6, modulator: ogerin), -1.54; in series [1] (pH 6.5, modulator: ogerin), -0.814. Moreover, the surface expression score in series [2] is -2.73.

For H20del, the cAMP reporter score is -1.21 in series [1] (pH 5.5); -0.456 in series [1] (pH 6); -1.27 in series [1] (pH 6, modulator: ogerin); -0.819 in series [1] (pH 6.5, modulator: ogerin). In addition, in series [2], the surface expression score turned out to be 0.831.

Take P25_V27del: the cAMP reporter score is -1.66 in series [1] (pH 5.5); -0.738 in series [1] (pH 6); -0.318 in series [1] (pH 6, modulator: ogerin); -1.06 in series [1] (pH 6.5, modulator: ogerin). For the same variant, the surface expression score in series [2] was -2.48.

Regarding L23_P25del, the cAMP reporter score in series [1] (pH 5.5) is -0.892; in series [1] (pH 6), -0.872; in series [1] (pH 6, modulator: ogerin), -1.17; in series [1] (pH 6.5, modulator: ogerin) it was -0.819. Also, the surface expression score in series [2] is -1.95.

Consider I19_H20insGSG, for which the cAMP reporter score in series [1] (pH 5.5) was -2.05; in series [1] (pH 6), -0.668; in series [1] (pH 6, modulator: ogerin), -1.78; in series [1] (pH 6.5, modulator: ogerin), -1.07. Besides, the surface expression score in series [2] is -2.11.

Q21_L23del: the cAMP reporter score is -1.42 in series [1] (pH 5.5); -0.628 in series [1] (pH 6); -1.94 in series [1] (pH 6, modulator: ogerin); -1.03 in series [1] (pH 6.5, modulator: ogerin). In addition, the surface expression score in series [2] was -3.4.

Turning to V26_V27insGSG, the cAMP reporter score was -0.473 in series [1] (pH 5.5); 0.045 in series [1] (pH 6); -0.882 in series [1] (pH 6, modulator: ogerin); -0.266 in series [1] (pH 6.5, modulator: ogerin). Also, the surface expression score in series [2] was -1.96.

For the variant V31_V33del, the cAMP reporter score was -1.46 in series [1] (pH 5.5); -0.449 in series [1] (pH 6); -0.986 in series [1] (pH 6, modulator: ogerin); -1.1 in series [1] (pH 6.5, modulator: ogerin). Moreover, in series [2], the surface expression score was -1.99.

On to T30del, for which the cAMP reporter score in series [1] (pH 5.5) is -0.205; in series [1] (pH 6), 1.84; in series [1] (pH 6, modulator: ogerin), 0.076; in series [1] (pH 6.5, modulator: ogerin), 0.422. In series [2], the surface expression score is -1.17.

Take L23_A24insG: the cAMP reporter score in series [1] (pH 5.5) was -1.71; in series [1] (pH 6), -1.68; in series [1] (pH 6, modulator: ogerin) it was -1.51; in series [1] (pH 6.5, modulator: ogerin), -0.854. For the same variant, the surface expression score in series [2] was -2.05.

As for V29F, the cAMP reporter score in series [1] (pH 5.5) is 0.212; in series [1] (pH 6), -0.604; in series [1] (pH 6, modulator: ogerin), -0.262; in series [1] (pH 6.5, modulator: ogerin) it was -0.416. In series [2], the surface expression score is -0.092.

Take V29G: the cAMP reporter score in series [1] (pH 5.5) was -0.823; in series [1] (pH 6), -1.65; in series [1] (pH 6, modulator: ogerin), -0.677; in series [1] (pH 6.5, modulator: ogerin) it was -0.926. Besides, in series [2], the surface expression score was -1.24.

Regarding V29K, the cAMP reporter score in series [1] (pH 5.5) was -0.969; in series [1] (pH 6) it was -0.369; in series [1] (pH 6, modulator: ogerin), -1.54; in series [1] (pH 6.5, modulator: ogerin), -1.19. The surface expression score in series [2] was -2.41.

On to V29N, for which the cAMP reporter score in series [1] (pH 5.5) was -0.523; in series [1] (pH 6), 0.268; in series [1] (pH 6, modulator: ogerin) it was -1.75; in series [1] (pH 6.5, modulator: ogerin) it was -0.898. Moreover, in series [2], the surface expression score was -2.23.

For the variant V29R, the cAMP reporter score in series [1] (pH 5.5) was -1.03; in series [1] (pH 6), -0.947; in series [1] (pH 6, modulator: ogerin), -1.46; in series [1] (pH 6.5, modulator: ogerin) it was -0.694. For the same variant, in series [2], the surface expression score is -2.14.

On to V29L, for which the cAMP reporter score in series [1] (pH 5.5) turned out to be 1.24; in series [1] (pH 6), 0.769; in series [1] (pH 6, modulator: ogerin) it was 1.3; in series [1] (pH 6.5, modulator: ogerin) it was 1.24. The surface expression score in series [2] turned out to be 1.82.

For V29Y, the cAMP reporter score in series [1] (pH 5.5) was -0.81; in series [1] (pH 6), -1.09; in series [1] (pH 6, modulator: ogerin) it was -0.781; in series [1] (pH 6.5, modulator: ogerin) it was -0.569. The surface expression score in series [2] was -0.732.

In the case of V29W, the cAMP reporter score in series [1] (pH 5.5) is 0.42; in series [1] (pH 6) it was -0.749; in series [1] (pH 6, modulator: ogerin) it was -0.117; in series [1] (pH 6.5, modulator: ogerin) it was -0.275. Moreover, the surface expression score in series [2] was 2.04.

Regarding V29Q, the cAMP reporter score in series [1] (pH 5.5) was -1.31; in series [1] (pH 6), -1.51; in series [1] (pH 6.5, modulator: ogerin), -1.04. Besides, in series [2], the surface expression score is -3.33.

Turning to V29T, the cAMP reporter score in series [1] (pH 5.5) was -0.691; in series [1] (pH 6, modulator: ogerin), -1.51; in series [1] (pH 6.5, modulator: ogerin), -0.716. The surface expression score in series [2] was -1.9.

For the variant V29I, the cAMP reporter score in series [1] (pH 5.5) is 0.061; in series [1] (pH 6, modulator: ogerin) it was 0.255; in series [1] (pH 6.5, modulator: ogerin), 0.956. Also, the surface expression score in series [2] was 0.084.

V29C: the cAMP reporter score in series [1] (pH 5.5) is -1.1; in series [1] (pH 6) it was -0.826; in series [1] (pH 6, modulator: ogerin), -0.915; in series [1] (pH 6.5, modulator: ogerin), -1.15. Further, in series [2], the surface expression score is -1.57.

In the case of V29A, the cAMP reporter score in series [1] (pH 5.5) is -0.481; in series [1] (pH 6), -0.726; in series [1] (pH 6, modulator: ogerin), -1.22; in series [1] (pH 6.5, modulator: ogerin), -1.11. The surface expression score in series [2] is -1.07.

With V29S, the cAMP reporter score in series [1] (pH 5.5) was -0.594; in series [1] (pH 6), -0.976; in series [1] (pH 6, modulator: ogerin), -1.39; in series [1] (pH 6.5, modulator: ogerin) it was -0.845. The surface expression score in series [2] was -2.07.

With V29M, the cAMP reporter score is 0.803 in series [1] (pH 5.5); -0.234 in series [1] (pH 6); 1.07 in series [1] (pH 6, modulator: ogerin); 0.174 in series [1] (pH 6.5, modulator: ogerin). Further, the surface expression score in series [2] turned out to be 1.33.

With V29D, the cAMP reporter score in series [1] (pH 5.5) was -1.8; in series [1] (pH 6) it was -0.209; in series [1] (pH 6, modulator: ogerin), -1.97; in series [1] (pH 6.5, modulator: ogerin) it was -1.68. For the same variant, the surface expression score in series [2] was -1.51.
